In PubChem BioAssay AID1476 (National Center for Advancing Translational Sciences (NCATS), 2009):
Several values for one entry are separate records, joined by “and”; a condition that tells them apart may be missing. Equal values may be shown once. The whole screen tested about 200,000 compounds, of which about 4,500 (2.2%) were called active. The shares of active, inactive and inconclusive entries below differ from those in the screen. Calls follow the shape of the dose curve; as a rule, active = well fitted inhibition curve with a large enough effect; inconclusive = small, poorly fitted or top-dose-only effect, or effect the other way; inactive = flat fitted curve, though single readings scatter. Where the call is inconclusive, the potency comes from a doubtful curve fit.

target: Cruzipain (Trypanosoma cruzi) (UniProt P25779); assay: qHTS Assay for Promiscuous and Specific Inhibitors of Cruzain (without detergent); conditions: purified cruzain, Z-FR-AMC fluorescence, no detergent; also: nearly all actives have a fitted effect of over 40% in size;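 as to max response, negative = inhibition: plate controls were enzyme without inhibitor for no effect and buffer without enzyme for full effect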
Chain of UniProt P25779 (P25779 whole entry, looked up): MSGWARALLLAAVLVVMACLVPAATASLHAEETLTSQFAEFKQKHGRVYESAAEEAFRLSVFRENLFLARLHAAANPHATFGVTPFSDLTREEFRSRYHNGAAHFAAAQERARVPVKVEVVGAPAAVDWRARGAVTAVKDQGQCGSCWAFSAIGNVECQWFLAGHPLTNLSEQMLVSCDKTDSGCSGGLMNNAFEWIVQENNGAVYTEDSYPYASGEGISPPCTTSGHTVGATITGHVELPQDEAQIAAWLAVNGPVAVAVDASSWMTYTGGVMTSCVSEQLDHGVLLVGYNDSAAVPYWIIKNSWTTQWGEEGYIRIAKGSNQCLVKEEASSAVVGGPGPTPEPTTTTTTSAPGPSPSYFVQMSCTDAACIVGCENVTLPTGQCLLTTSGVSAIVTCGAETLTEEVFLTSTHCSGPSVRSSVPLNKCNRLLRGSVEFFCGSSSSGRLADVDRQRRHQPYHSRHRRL
Procedure, shortened: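 Purified cruzain at 1.5 nM, pre-incubated 15 min with compound at room temperature in 100 mM sodium acetate pH 5.5, 5 mM DTT, 0.00005% Triton X-100. Reaction started with 2 uM Z-FR-AMC; AMC fluorescence increase over 60 s gives rate.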
Potency is read from the fitted curve at half-maximal effect; tags tell the direction and shape of the fitted curve.

| SMILES | Potency | max response, negative = inhibition |
| --- | --- | --- |
| COCCCn1c(SCc2ccccc2)nc2cc(OC)c(OC)cc2c1=N | inconclusive: 39.8 µM [activator, single point] | – |
| O=C(NCCN=C1NS(=O)(=O)c2ccccc21)c1ccncc1 | – | inactive: -2.67% |
| CC(=O)c1ccc(NC(=O)CCc2c(C)nc3cc(-c4ccc(Cl)cc4)nn3c2C)cc1 | – | inactive: -4.96% |
| O=C(C1CCCCC1)N1CCC(c2nc3c(nnn3Cc3c(F)cccc3Cl)c(=O)[nH]2)CC1 | inconclusive: 39.8 µM [activator, single point] | – |
| Cc1c(C(=O)N/N=C/c2ccc(-c3ccccc3[N+](=O)[O-])o2)sc(N)c1C#N | inconclusive: 39.8 µM [inhibitor, single point] | – |
| COc1cccc(-n2c(SCc3ccccc3C)nc3c([nH]c4ccccc43)c2=O)c1 | active: 3.98 µM | – |
| O=C(NCCSc1c(-c2ccc(F)cc2)[nH]c2ccccc12)c1ccc(S(=O)(=O)N2CCOCC2)cc1 | inconclusive: 39.8 µM [inhibitor, single point] | – |
| CCC(=O)O[C@H]1C(O[C@@H]2C(C)[C@H](O[C@H]3C[C@@](C)(OC)C(O)C(C)O3)C(C)C(=O)OC(CC)[C@@](C)(O)C(O)[C@H](C)C(=O)C(C)C[C@]2(C)O)OC(C)CC1N(C)C (some centres undefined) | inconclusive: 2.51 µM [activator, partial curve] | – |
| Cc1c(-c2nsc(NC(=O)c3cccs3)n2)nnn1-c1ccc(Br)cc1 | inconclusive: 31.6 µM [inhibitor, single point] | – |
| Cc1c(C)n(Cc2ccccc2)c2ccc(C(=O)NCc3ccco3)cc12 | inconclusive: 25.1 µM [inhibitor, single point] | – |
| Cc1ccc(/C=C2\SC(=S)N(CCCC(=O)Nc3ccccn3)C2=O)cc1 | inconclusive: 31.6 µM [inhibitor, single point] | – |
| COc1cc(NC(=O)c2ccccc2NS(=O)(=O)c2ccc(Cl)s2)cc(OC)c1 | inconclusive: 25.1 µM [inhibitor, single point] | – |
| O=C1CCCC2=C1C(c1ccsc1)CC(=O)N2c1nnc(SCc2ccccc2)s1 (centres undefined) | inconclusive: 39.8 µM [inhibitor, single point] | – |
| CSC1=NSC2=NC(=O)/C(=C\c3coc4ccccc4c3=O)C(=N)N12 | inconclusive: 31.6 µM [activator, single point] | – |
| CCC1CN(C(=O)Nc2cc(C)cc(C)c2)c2ccccc2O1 (centres undefined) | – | inactive: 23.5% |
| Cc1ccc(C(=O)NCC(c2cccnc2)N2CCc3ccccc32)cc1C (centres undefined) | inconclusive: 0.126 µM [inhibitor, single point] | – |
| COc1ccc(CCNC(=O)CCCCn2c(=O)c3ccccc3n(Cc3ccc(F)cc3Cl)c2=O)cc1OC | – | inactive: -6.04% |
| O=C(CSc1nc2c(c(=O)n1-c1ccc(Cl)cc1)SCC2)Nc1nccs1 | inconclusive: 15.8 µM [inhibitor, partial curve] | – |
| COc1ccc(NC(=O)c2oc3ccccc3c2NC(=O)COc2ccccc2OC)c(OC)c1 | inconclusive: 39.8 µM [inhibitor, single point] | – |
| Cc1cc(Cl)ccc1OCC(=O)NCCOc1nc(N2CCOCC2)nc(N2CCOCC2)n1 | inconclusive: 31.6 µM [activator, single point] | – |

| SMILES | Potency | max response, negative = inhibition |
| --- | --- | --- |
| CCOC(=O)C(C)Oc1cccc2c(=O)n(CC(=O)Nc3ccc4c(c3)OCCO4)ccc12 (centres undefined) | inconclusive: 39.8 µM [inhibitor, single point] | – |
| CCn1c(CC(=O)Nc2ccc(Cl)c(Cl)c2)nnc1SCc1ccc(C)cc1 | inconclusive: 3.98 µM [inhibitor, single point] | – |
| Cc1nc(C)c(-c2csc(NCc3ccco3)n2)s1 | – | inactive: -7.6% |
| COc1ccc(C(CC(=O)c2ccc(C)cc2)Nc2ccc([N+](=O)[O-])cc2)cc1 (centres undefined) | inconclusive: 3.16 µM [inhibitor, single point] | – |
| Cc1c(NC(=O)OCc2ccccc2)c(=O)n(-c2ccccc2)n1C | inconclusive: 5.01 µM [inhibitor, full curve, poor fit] | – |
| NCC[C@H](N)C(=O)O | – | inactive: -9.7% |
| O=C(Nc1ccc(Br)cc1)c1nn(C23CC4CC(CC(C4)C2)C3)cc1Br | active: 25.1 µM | – |
| N#Cc1cccc(-c2cn(S(=O)(=O)c3ccc(Cl)cc3)nc2N)c1 | inconclusive: 31.6 µM [inhibitor, single point] | – |
| CCN(NC(=O)C(O)(c1ccc(F)cc1)c1ccc(F)cc1)C(=O)c1ccccc1 | – | inactive: -8.32% |
| CCOC(=O)C1CCCN(CCCc2ccccc2)C1 (centres undefined) | – | inactive: -3.12% and inactive: -0.472% |
| Cc1ccc(SCC(=O)N2CCOCC2)cc1 | inconclusive: 3.16 µM [activator, single point] | – |
| C[C@H](NC(=O)C1(c2ccccc2)CCN(C(=O)[C@H]2CSCN2C(=O)OC(C)(C)C)CC1)C(=O)O | inconclusive: 25.1 µM [activator, single point] | – |
| CN(C)/C=C(/C#N)C(=O)c1cccc(Oc2ccc(C(C)(C)C)cc2)c1 | inconclusive: 39.8 µM [activator, single point] | – |
| COc1ccc(Cl)cc1NC(=O)Cn1nc(-c2ccc(C)cc2)n(C)c1=S | inconclusive: 39.8 µM [inhibitor, single point] | – |
| COc1cc(C(=O)Nc2ccc(S(=O)(=O)N(C)c3ccccc3)cc2)cc(OC)c1OC | inconclusive: 39.8 µM [activator, single point] | – |
| O=S(=O)(O/N=C1\CCCc2ccccc21)c1ccccc1 | – | inactive: -0.573% |
| C=CCn1c(NS(=O)(=O)c2ccccc2)c(S(=O)(=O)c2ccc(C)cc2)c2nc3ccccc3nc21 | inconclusive: 25.1 µM [inhibitor, single point] | – |
| O=C(O)C[C@H]1OCC=C2C[N@@+]3([O-])CC[C@]45c6ccccc6N[C@@H]4[C@@H]1[C@H]2C[C@H]53 | – | inactive: 0.748% |
| COc1ccc(OC2C(=O)N(c3ccc(C)c(C)c3)C2c2ccc(OC)c(OC)c2)cc1 (centres undefined) | inconclusive: 25.1 µM [activator, single point] | – |
